Results on eight molecules are retold here after patent US20190144558A1.

This assay has as its target human CD117 on CD117 expressing cells (Kasumi-1 cells; primary human CD34+ bone marrow cells) (human), P10721. Nature of the assay: cell-based or functional assay.

B1: Antibody 54 (antibody, human IgG1, kappa)
heavy: QVQLVQSGAEVKKPGSSVKVSCKASGGTFSSYAISWVRQAPGQGLEWMGGIIPIFGTANYAQKFQGRVTITADESTSTAYMELSSLRSEDTAVYYCARGGLDTDEFDLWGRGTLVTVSS[sequence of human IgG1 constant region not given]
light: DIQMTQSPSSLSASVGDRVTITCRASQSINSYLNWYQQKPGKAPKLLIYAASSLQSGVPSRFSGSGSGTDFTLTISSLQPEDFATYYCQQGVSDITFGGGTKVEIKRTVAAPSVFIFPPSDEQLKSGTASVVCLLNNFYPREAKVQWKVDNALQSGNSQESVTEQDSKDSTYSLSSTLTLSKADYEKHKVYACEVTHQGLSSPVTKSFNRGEC
With B1, the AUC Kasumi-1 Killing (AUC hIgG1 - AUC MAC ID#); IgG pre-incubated with anti-human Fab-saporin, Celltiter Glo was 155000.

B2: Antibody 55 (antibody, human IgG1, kappa)
heavy: QVQLVQSGAEVKKPGSSVKVSCKASGGTFRIYAISWVRQAPGQGLEWMGGIIPDFGVANYAQKFQGRVTITADESTSTAYMELSSLRSEDTAVYYCARGGLDTDEFDLWGRGTLVTVSS[sequence of human IgG1 constant region not given]
light: DIQMTQSPSSLSASVGDRVTITCRASQSINSYLNWYQQKPGKAPKLLIYAASSLQSGVPSRFSGSGSGTDFTLTISSLQPEDFATYYCQQGVSDITFGGGTKVEIKRTVAAPSVFIFPPSDEQLKSGTASVVCLLNNFYPREAKVQWKVDNALQSGNSQESVTEQDSKDSTYSLSSTLTLSKADYEKHKVYACEVTHQGLSSPVTKSFNRGEC
As to B2, the AUC Kasumi-1 Killing (AUC hIgG1 - AUC MAC ID#); IgG pre-incubated with anti-human Fab-saporin, Celltiter Glo worked out at 226000.

B3: Antibody 56 (antibody, human IgG1, kappa)
heavy: QVQLVQSGAEVKKPGSSVKVSCKASGGTFSLYAISWVRQAPGQGLEWMGGIIPAFGTANYAQKFQGRVTITADESTSTAYMELSSLRSEDTAVYYCARGGLDTDEFDLWGRGTLVTVSS[sequence of human IgG1 constant region not given]
light: DIQMTQSPSSLSASVGDRVTITCRASQSINSYLNWYQQKPGKAPKLLIYAASSLQSGVPSRFSGSGSGTDFTLTISSLQPEDFATYYCQQGVSDITFGGGTKVEIKRTVAAPSVFIFPPSDEQLKSGTASVVCLLNNFYPREAKVQWKVDNALQSGNSQESVTEQDSKDSTYSLSSTLTLSKADYEKHKVYACEVTHQGLSSPVTKSFNRGEC
The molecule B3 had an AUC Kasumi-1 Killing (AUC hIgG1 - AUC MAC ID#); IgG pre-incubated with anti-human Fab-saporin, Celltiter Glo of 193000.

B4: Antibody 57 (antibody, human IgG1, kappa)
heavy: QVQLVQSGAEVKKPGSSVKVSCKASGGTFSLYAISWVRQAPGQGLEWMGGIIPHFGLANYAQKFQGRVTITADESTSTAYMELSSLRSEDTAVYYCARGGLDTDEFDLWGRGTLVTVSS[sequence of human IgG1 constant region not given]
light: DIQMTQSPSSLSASVGDRVTITCRASQSINSYLNWYQQKPGKAPKLLIYAASSLQSGVPSRFSGSGSGTDFTLTISSLQPEDFATYYCQQGVSDITFGGGTKVEIKRTVAAPSVFIFPPSDEQLKSGTASVVCLLNNFYPREAKVQWKVDNALQSGNSQESVTEQDSKDSTYSLSSTLTLSKADYEKHKVYACEVTHQGLSSPVTKSFNRGEC
Molecule B4 returned an AUC Kasumi-1 Killing (AUC hIgG1 - AUC MAC ID#); IgG pre-incubated with anti-human Fab-saporin, Celltiter Glo of 157000.

B5: Antibody 66 (antibody, human IgG1, kappa)
heavy: EVQLVESGGGLVQPGGSLRLSCAASGFTFSDHYMDWVRQAPGKGLEWVGRTRNKASSYTTEYAASVKGRFTISRDDSKNSLYLQMNSLKTEDTAVYYCAREPKYWIDFDLWGRGTLVTVSS[sequence of human IgG1 constant region not given]
light: [sequence of about 100 residues not given][sequence of about 120 residues not given]
In the case of B5, the AUC Kasumi-1 Killing (AUC hIgG1 - AUC MAC ID#); IgG pre-incubated with anti-human Fab-saporin, Celltiter Glo is 135000.

B6: Antibody 67 (antibody, human IgG1, kappa)
heavy: EVQLVESGGGLVQPGGSLRLSCAASGFTFSDADMDWVRQAPGKGLEWVGRTRNKAGSYTTEYAASVKGRFTISRDDSKNSLYLQMNSLKTEDTAVYYCAREPKYWIDFDLWGRGTLVTVSS[sequence of human IgG1 constant region not given]
light: [sequence of about 100 residues not given][sequence of about 120 residues not given]
B6: the AUC Kasumi-1 Killing (AUC hIgG1 - AUC MAC ID#); IgG pre-incubated with anti-human Fab-saporin, Celltiter Glo turned out to be 156000.

B7: Antibody 69 (antibody, human IgG1, kappa)
heavy: EVQLVESGGGLVQPGGSLRLSCAASGFTFVDHDMDWVRQAPGKGLEWVGRTRNKLGSYTTEYAASVKGRFTISRDDSKNSLYLQMNSLKTEDTAVYYCAREPKYWIDFDLWGRGTLVTVSS[sequence of human IgG1 constant region not given]
light: [sequence of about 100 residues not given][sequence of about 120 residues not given]
In turn, B7 gave an AUC Kasumi-1 Killing (AUC hIgG1 - AUC MAC ID#); IgG pre-incubated with anti-human Fab-saporin, Celltiter Glo of 40000.

B8: Antibody 68 (antibody, human IgG1, kappa)
heavy: EVQLVESGGGLVQPGRSLRLSCTASGFTFSDHDMNWVRQAPGKGLEWVGRTRNAAGSYTTEYAASVKGRFTISRDDSKNSLYLQMNSLKTEDTAVYYCAREPKYWIDFDLWGRGTLVTVSS[sequence of human IgG1 constant region not given]
light: [sequence of about 100 residues not given][sequence of about 120 residues not given]
The molecule B8 came in with an AUC Kasumi-1 Killing (AUC hIgG1 - AUC MAC ID#); IgG pre-incubated with anti-human Fab-saporin, Celltiter Glo of 14400.
